Source: the BET-seq Pho4 binding data (Le et al. 2018)
The other results are listed elsewhere or left out. The energies were worked out here from pooled read counts, against the library average; single values are noisy.

What follows are sequences tested against T1, Pho4 (S. cerevisiae) (UniProt P07270) (assay: relative binding free energy (BET-seq); higher = weaker binding). Conditions: reference: library average.
T1 sequence: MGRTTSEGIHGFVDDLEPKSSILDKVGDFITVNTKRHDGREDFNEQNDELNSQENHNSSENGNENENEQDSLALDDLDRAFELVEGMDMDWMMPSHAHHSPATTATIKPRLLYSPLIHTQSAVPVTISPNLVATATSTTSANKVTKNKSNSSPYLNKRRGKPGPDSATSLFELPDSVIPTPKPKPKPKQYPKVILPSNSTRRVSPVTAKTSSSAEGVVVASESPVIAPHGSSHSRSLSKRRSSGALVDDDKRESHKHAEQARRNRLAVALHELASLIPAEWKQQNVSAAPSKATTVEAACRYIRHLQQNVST

Q: With AGGTGCACGTGCGAAA as the sequence, how does the “relative binding free energy” value read?
A: Its value is 0.05 kcal/mol.

Q: With AAGATCACGTGTGTAT as the sequence, how does the “relative binding free energy” value read?
A: The value was 0.04 kcal/mol.

Q: Which “relative binding free energy” value does the source give for CAGGTCACGTGGGGGT here?
A: The value was -0.02 kcal/mol.

Q: With GGTAGCACGTGGTGAT as the sequence, how does the “relative binding free energy” value read?
A: Its value is -0.05 kcal/mol.

Q: How did the “relative binding free energy” value turn out when GGGTACACGTGTGGAT was run?
A: The value was 0.1 kcal/mol.

Q: Which “relative binding free energy” value does the source give for GCTTTCACGTGCGGGC here?
A: The value was 0.44 kcal/mol.

Q: CTTGTCACGTGTGTAT was tested. Which “relative binding free energy” value did it give?
A: The value was 0.21 kcal/mol.

Q: With TATATCACGTGCATTA as the sequence, how does the “relative binding free energy” value read?
A: The value was 0.2 kcal/mol.

Q: How did the “relative binding free energy” value turn out when AGGGACACGTGTTTTG was run?
A: The value was 0.06 kcal/mol.

Q: GTTTGCACGTGCAATT was tested. Which “relative binding free energy” value did it give?
A: Its value is 0.03 kcal/mol.

Q: Which “relative binding free energy” value does the source give for TATTGCACGTGGATGG here?
A: The value was 0.12 kcal/mol.

Q: How did the “relative binding free energy” value turn out when TCAATCACGTGTTATG was run?
A: Its value is 0.02 kcal/mol.

Q: How did the “relative binding free energy” value turn out when TTAGTCACGTGTTATC was run?
A: The value was 0.03 kcal/mol.

Q: For TCTGTCACGTGTGGGA, which “relative binding free energy” value is on record?
A: The value was 0.1 kcal/mol.

Q: With GTGTACACGTGCGGTA as the sequence, how does the “relative binding free energy” value read?
A: Its value is 0.02 kcal/mol.

Q: Which “relative binding free energy” value does the source give for TTGTACACGTGTGAAA here?
A: Its value is 0.09 kcal/mol.

Q: How did the “relative binding free energy” value turn out when ATGTGCACGTGGCTCG was run?
A: The value was -0.03 kcal/mol.

Q: With AATAACACGTGGTGGG as the sequence, how does the “relative binding free energy” value read?
A: Its value is -0.07 kcal/mol.

Q: With ACAATCACGTGGTGTT as the sequence, how does the “relative binding free energy” value read?
A: Its value is 0.09 kcal/mol.

Q: For AGAGTCACGTGTGGCA, which “relative binding free energy” value is on record?
A: Its value is 0.07 kcal/mol.

Q: For AGGGACACGTGAGTCT, which “relative binding free energy” value is on record?
A: Its value is 0.27 kcal/mol.

Q: TTGCGCACGTGGTGAT was tested. Which “relative binding free energy” value did it give?
A: Its value is -0.22 kcal/mol.

Q: How did the “relative binding free energy” value turn out when AAGCTCACGTGTGTTA was run?
A: The value was 0.27 kcal/mol.

Q: For GAAGACACGTGTTGAG, which “relative binding free energy” value is on record?
A: Its value is 0.05 kcal/mol.

Q: For GCTGGCACGTGGTAAA, which “relative binding free energy” value is on record?
A: Its value is 0 kcal/mol.

Q: How did the “relative binding free energy” value turn out when TCGGTCACGTGAGTTA was run?
A: The value was 0.29 kcal/mol.

Q: Which “relative binding free energy” value does the source give for GGCGGCACGTGTTGTG here?
A: The value was -0.02 kcal/mol.

Q: With GATGCCACGTGGGTAT as the sequence, how does the “relative binding free energy” value read?
A: The value was -0.04 kcal/mol.

Q: GTTAACACGTGATAGG was tested. Which “relative binding free energy” value did it give?
A: Its value is 0.11 kcal/mol.

Q: With TATTGCACGTGGGTTT as the sequence, how does the “relative binding free energy” value read?
A: Its value is -0.12 kcal/mol.

Q: How did the “relative binding free energy” value turn out when TTATTCACGTGCTGCG was run?
A: The value was 0.21 kcal/mol.

Q: With AGGTGCACGTGTAAGG as the sequence, how does the “relative binding free energy” value read?
A: The value was 0.03 kcal/mol.

Q: Which “relative binding free energy” value does the source give for GTAATCACGTGGTCGG here?
A: Its value is 0.01 kcal/mol.

Q: How did the “relative binding free energy” value turn out when GATTTCACGTGATGCG was run?
A: The value was 0.31 kcal/mol.

Q: Which “relative binding free energy” value does the source give for AGTATCACGTGGAGCT here?
A: The value was 0.27 kcal/mol.

Q: With TGGACCACGTGGGTTT as the sequence, how does the “relative binding free energy” value read?
A: Its value is -0.19 kcal/mol.

Q: Which “relative binding free energy” value does the source give for GTTAACACGTGTAGGC here?
A: The value was 0.09 kcal/mol.

Q: How did the “relative binding free energy” value turn out when TGTGACACGTGAAGGT was run?
A: The value was 0.3 kcal/mol.

Q: For TTAGCCACGTGATTGA, which “relative binding free energy” value is on record?
A: Its value is 0.22 kcal/mol.

Q: ATGTTCACGTGCTGGC was tested. Which “relative binding free energy” value did it give?
A: The value was 0.27 kcal/mol.

Q: How did the “relative binding free energy” value turn out when ACGTTCACGTGTTTTG was run?
A: Its value is 0.1 kcal/mol.

Q: For GTTGTCACGTGCCGTT, which “relative binding free energy” value is on record?
A: Its value is 0.2 kcal/mol.

Q: Which “relative binding free energy” value does the source give for GTTGGCACGTGTGGGA here?
A: The value was 0.09 kcal/mol.

Q: AAGGTCACGTGGGCTA was tested. Which “relative binding free energy” value did it give?
A: Its value is 0.06 kcal/mol.

Q: With ATAGACACGTGAAGAT as the sequence, how does the “relative binding free energy” value read?
A: Its value is 0.38 kcal/mol.

Q: With AGGAGCACGTGCGTGA as the sequence, how does the “relative binding free energy” value read?
A: Its value is -0.25 kcal/mol.

Q: With TGGTACACGTGAATTT as the sequence, how does the “relative binding free energy” value read?
A: Its value is 0.29 kcal/mol.

Q: AACGGCACGTGGTTTT was tested. Which “relative binding free energy” value did it give?
A: The value was -0.18 kcal/mol.

Q: How did the “relative binding free energy” value turn out when GCGGGCACGTGTGTGA was run?
A: The value was -0.17 kcal/mol.

Q: GGTCTCACGTGTCAGT was tested. Which “relative binding free energy” value did it give?
A: Its value is 0.29 kcal/mol.

Q: CATGTCACGTGTTCGT was tested. Which “relative binding free energy” value did it give?
A: The value was -0.02 kcal/mol.

Q: GTGAACACGTGGGATA was tested. Which “relative binding free energy” value did it give?
A: The value was 0.11 kcal/mol.

Q: TCAGCCACGTGGTGGT was tested. Which “relative binding free energy” value did it give?
A: The value was -0.13 kcal/mol.

Q: Which “relative binding free energy” value does the source give for ACGGGCACGTGCTGTG here?
A: Its value is -0.23 kcal/mol.

Q: With GGGAGCACGTGTAGTC as the sequence, how does the “relative binding free energy” value read?
A: Its value is -0.1 kcal/mol.

Q: For GGTTCCACGTGGGGGT, which “relative binding free energy” value is on record?
A: The value was -0.04 kcal/mol.

Q: GGTGGCACGTGTTATG was tested. Which “relative binding free energy” value did it give?
A: The value was -0.01 kcal/mol.

Q: GTTTTCACGTGGGTTC was tested. Which “relative binding free energy” value did it give?
A: The value was 0.36 kcal/mol.

Q: How did the “relative binding free energy” value turn out when TTGGTCACGTGTTCTT was run?
A: The value was 0.08 kcal/mol.

Q: With TTTGACACGTGGGAAG as the sequence, how does the “relative binding free energy” value read?
A: Its value is -0.15 kcal/mol.

Q: Which “relative binding free energy” value does the source give for AAAGTCACGTGGTGCT here?
A: Its value is 0.01 kcal/mol.

Q: For TGTACCACGTGTCGGT, which “relative binding free energy” value is on record?
A: Its value is 0.04 kcal/mol.

Q: TAAGTCACGTGAATGG was tested. Which “relative binding free energy” value did it give?
A: Its value is 0.32 kcal/mol.

Q: Which “relative binding free energy” value does the source give for TGGAGCACGTGAACGT here?
A: The value was 0.09 kcal/mol.

Q: For CTATTCACGTGAGTGA, which “relative binding free energy” value is on record?
A: The value was 0.48 kcal/mol.

Q: AGGGACACGTGAGAGA was tested. Which “relative binding free energy” value did it give?
A: The value was 0.16 kcal/mol.

Q: TTATGCACGTGAGTAC was tested. Which “relative binding free energy” value did it give?
A: Its value is 0.13 kcal/mol.

Q: AGGTACACGTGACAGG was tested. Which “relative binding free energy” value did it give?
A: The value was 0.26 kcal/mol.

Q: How did the “relative binding free energy” value turn out when AGAGCCACGTGAGGTG was run?
A: Its value is 0.11 kcal/mol.

Q: How did the “relative binding free energy” value turn out when TTGCGCACGTGCTGTG was run?
A: Its value is -0.26 kcal/mol.

Q: How did the “relative binding free energy” value turn out when GCAGGCACGTGAGGGT was run?
A: Its value is 0.16 kcal/mol.

Q: How did the “relative binding free energy” value turn out when TATATCACGTGTGGCA was run?
A: Its value is 0.06 kcal/mol.

Q: How did the “relative binding free energy” value turn out when CTTATCACGTGGGGGG was run?
A: The value was 0.1 kcal/mol.
